Measurements taken from PubChem BioAssay AID1794842 (National Center for Advancing Translational Sciences (NCATS), 2023).
In all, about 2,800 compounds went through this assay and fewer than 10 were called active. The call rests on the fitted dose curve; in most records, active means well fitted curve in the direction sought with a large enough effect; inconclusive means small, poorly fitted or top-dose-only effect, or another doubt; inactive means no such curve, though single readings can be large or run the other way. This is one part of the list.

Molecular target: Metallo-beta-lactamase type 2 (Klebsiella pneumoniae) (UniProt C7C422)
Test: qHTS to identify inhibitors of the New Delhi Metallo-beta-lactamase (NDM): Meropenem screen against the machine-based learning selections. Further: % of control where 0% means no effect.
Settings: Purified NDM-1, meropenem hydrolysis, absorbance 300 nm; at 38.4 µM (top of the series) unless noted
Outline: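 NDM-1 (2 nM final) in 50 mM HEPES pH 7.0, 1 uM Zn2SO4, 0.01% Tween20 was preincubated with compounds for >30 min. Nitrocefin (16.7 uM final) was read at 485 nm after 15 min, and meropenem (50 uM final) at 300 nm after 30 min.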

Chain of UniProt C7C422 (C7C422 whole entry, looked up): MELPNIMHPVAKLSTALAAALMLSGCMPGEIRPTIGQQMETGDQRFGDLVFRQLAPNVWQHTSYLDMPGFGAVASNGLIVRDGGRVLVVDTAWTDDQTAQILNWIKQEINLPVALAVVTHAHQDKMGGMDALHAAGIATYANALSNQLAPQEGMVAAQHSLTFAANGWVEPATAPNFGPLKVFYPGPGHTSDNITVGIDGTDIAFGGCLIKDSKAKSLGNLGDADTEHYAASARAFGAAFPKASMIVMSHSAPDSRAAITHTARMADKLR

Activity change, negative = inhibition, inactive:
CSCC(=O)N1CC[C@H](NC(=O)Nc2cccc(SC)c2)[C@H]1C(=O)N[C@@H](Cc1cccs1)C(N)=O -0.536%
O=C(Cc1ccccc1C(F)(F)F)N1CCC2(CC1)[C@H](O)C[C@@H]2O -3.71%
c1ccc(-c2cc3c(cn2)CN(Cc2c[nH]c4ccccc24)CCN3)cc1 -1.8% [at 57.5 µM]
CC(C)Oc1ccc2c(NC(=O)c3ncc(F)cc3F)nn(CC(F)(F)F)c2c1 28.7%
O[C@H]1CC[C@@H](Cc2cc(COc3ccccc3)on2)O[C@@H]1CNC1CCOCC1 1.9% [at 57.5 µM]
CC(C)(O)c1cc(CC2(NCc3cnc4ccccc4c3)COC2)no1 0.689% [at 57.5 µM]
CC1(C(=O)Nc2ccccc2)COCc2cnc(Nc3ccccc3)nc21 (configuration not stated) 1.41% [at 57.5 µM]
COc1ccc(-c2[nH]ncc2CN2CC[C@H]3CC[C@@H](C2)N3)cc1 42.2%
CN1C[C@@H](NC(=O)c2ccc(C(C)(C)C)cc2)C[C@H]1c1nc(-c2ccncc2)no1 -0.0853% [at 57.5 µM]
CC(C)N1C(=O)CO[C@H](c2ccc(NC(=O)c3ccccc3)cc2)[C@H]1CO 1.42% [at 57.5 µM]
Cc1cccc2c1nc1n2[C@@H](CNCc2ccccc2)COC1 -1.48% [at 57.5 µM]
CCOC(=O)C[C@@H]1C[C@@H](C(C)C)[C@H](CNC(=O)c2ccc(F)cc2)C=C1C 1.91% [at 57.5 µM]
Cc1cc(Cn2cc3c4c(cccc42)[C@H](CC(C)C)N[C@H](C(=O)N2CCN(C)CC2)C3)no1 1.09%
COc1ccc(C(=O)N[C@H](C)c2onc(-c3ccc(F)cc3)c2C(=O)O)cc1 8.11% [at 57.5 µM]
CCc1nc2c(c(-c3ccc(O)cc3)n1)CN(Cc1ccccc1OC)CC2 2.83%
O=C(O)Cn1ccc2cc(OCCc3cccc(-c4ccccc4)c3)cnc21 21.8% [at 57.5 µM]
COc1cc(F)cc(-c2cnc3[nH]cc(CC(=O)NCc4cccnc4)c3c2)c1 1.07% [at 57.5 µM]
COc1ccc(C(=O)NC[C@H]2O[C@@H](CC(=O)N3CCN(c4ccccc4OC)CC3)[C@H](O)[C@@H]2O)cc1 0.607%
COCC(=O)NC[C@H]1OC[C@@H](NC2CCC2)[C@@H]1O -0.146% [at 76.7 µM]
O=C(O)C1CN(c2nccc(N3CCC(O)CC3)n2)CCN1 (configuration not stated) 45.8%
O=C(O)Cn1ccc2cc(OCc3cccc(-c4cccc(C(F)(F)F)c4)c3)cnc21 25.8% [at 57.5 µM]
O=C(c1ccc(OC(F)F)cc1)N1CCCC(O)(CN2CCCC2)C1 (configuration not stated) -0.303%
C=CCN(C)C(=O)[C@@H](C)C1CC[C@@]2(C)Cc3sc(CSc4ccccc4)nc3[C@@H](C)[C@@H]2[C@H]1O (some centres not stated) -0.356%
Cc1ccc(OC2(C(=O)N[C@H]3CCc4ccccc43)CCNCC2)cc1 -0.232%
Cc1nnc([C@@H]2CC(F)(F)CN2C(=O)c2ccc3ncccc3c2)o1 -4.78%
CC(C)NC(=O)N[C@H]1C[C@@H](Cc2cc(-c3ccccc3)on2)C1(C)C 0.8% [at 57.5 µM]
CC1(COc2ccccc2)COc2ccc(C(=O)NCCc3cnc[nH]3)cc2N1 (configuration not stated) 1.59% [at 57.5 µM]
NC(=O)c1cccc(-c2ccc3c(n2)CN(Cc2nc4ccccc4s2)C(=O)CO3)c1 4.75% [at 57.5 µM]
Cc1ccc(S(=O)(=O)N[C@H]2CO[C@H]3[C@@H]2OC[C@@H]3Nc2nccc(C(C)(C)C)n2)cc1 2.58% [at 57.5 µM]
Cc1ccccc1Oc1ncccc1CNCc1cccc(O)c1 -0.0618%
CCCc1nnc([C@H]2CCN(Cc3ccc(C)o3)C2)o1 14.5% [at 76.7 µM]
COc1cc(NC(=O)Cn2nc3c(cc2=O)CCCCC3)cc(OC)c1OC 1.04%
C[S+](=O)([O-])Nc1cccc(Nc2cnc3ccc(-c4ccc(F)cc4)nn23)c1 19.2% [at 57.5 µM]
Cc1cccc(O[C@H]2COCCN(Cc3ccccn3)C2)n1 -3.52% [at 57.5 µM]
O=c1cc(CN2CCCC(c3nccn3Cc3ccccc3)C2)[nH]c(=O)[nH]1 (configuration not stated) 90.4%
Cc1cc(C(=O)N[C@H](C)c2c(-c3ccc(Cl)cc3)noc2C(=O)O)c(C)o1 53.2% [at 57.5 µM]
Cc1nc(CC(=O)N2CC[C@@H](NC(=O)c3cnccn3)[C@H](O)C2)cs1 3.16%
COc1ccc(C(=O)N2CCC(=O)N(Cc3ccc(F)cc3)C(C(C)C)C2)o1 (configuration not stated) 7.28%
Cc1ccccc1C1CCCN1Cc1ncccc1C(=O)O (configuration not stated) 60.6%
COc1ccc(CN2C[C@@H](CO)[C@H](C3CCN(C(C)=O)CC3)C2)cc1C -0.125%
N#Cc1cccc(CN2Cc3[nH]cnc3C[C@H]2c2nc(-c3ccc(OC(F)(F)F)cc3)no2)c1 13.8%
CCNC(=O)Cc1c[nH]c2ncc(-c3ccccc3C)cc12 5.72% [at 57.5 µM]
OC(c1cccc(C(F)(F)F)c1)c1nc(Nc2ccccc2)n[nH]1 (configuration not stated) -0.239% [at 57.5 µM]
Fc1ccc2c(c1)nc1n2[C@@H](CNC2CCC2)COC1 -4.78% [at 76.7 µM]
COc1ccccc1CN1C(=O)COC[C@@H]1[C@H](O)c1ccc(NC(=O)CCc2ccccc2)cc1 -0.258%
O=c1cc(CNCc2nc(-c3ncccn3)no2)[nH]c2ccc(F)cc12 15.5%
CN(Cc1ccccc1)C(=O)C[C@@H]1O[C@H](CNCc2ccc(F)cc2)[C@@H](O)[C@H]1O -2.09% [at 57.5 µM]
COCCN1C(=O)[C@@H]2C[C@@H](CN2Cc2ccccc2)Oc2ccccc21 0.296% [at 57.5 µM]
COc1ccc(C(=O)Nc2ccc([C@@H](O)[C@H]3COCC(=O)N3Cc3ccc(F)cc3)cc2)cc1OC 4.78%
O=C(c1cc(F)ccc1F)N1CCN(c2cc(-c3ccc(Cl)cc3)[nH]n2)CC1 -2.4%
CCCn1ccc2oc(C)c(C(=O)NCc3ccc(CC)cc3)c2c1=O 1.82%
CN1[C@@H](CCC(=O)Nc2ccccc2)CNC(=O)[C@@H]2[C@H]1CCN2Cc1nc2ccccc2n1C 34.5%
CCc1nc2c(c(-c3ccc(Cl)cc3)n1)CN(S(=O)(=O)c1ccccc1)CC2 1.07%
CNC(=O)N1CCC(C2CCN(Cc3ccc(Br)o3)C2)CC1 (configuration not stated) 0.155%
O=C(NCc1ccccc1)N1CCCCC1c1nc(-c2cnccn2)n[nH]1 (configuration not stated) 32.3%
O=C(NCc1ccc(Cl)cc1)[C@@H]1Cc2nc[nH]c2CN1Cc1ccc(Cl)cc1 20% [at 57.5 µM]
O=C(NC1CC(c2cc(NCCO)ncn2)C1)c1cc2ccccc2[nH]1 (configuration not stated) 3.8%
O=C(NCc1ccc(F)cc1)c1cnc2n[nH]c(-c3ccccc3)c2n1 -0.14% [at 57.5 µM]
O=C(NC[C@H]1O[C@@H](CO)[C@@H](O)[C@H]1N1CCN(c2ccccc2)CC1)c1cccs1 50.7% [at 57.5 µM]
Cc1noc([C@@H]2CNC[C@H]2CO)n1 4.3%
CC(=O)N[C@@H]1Cc2ccccc2[C@H]1n1ccnc1-c1cc2n(n1)CCNC2 41.3%
CCN1C(=O)C2CC3(CCN(C(=O)CCc4c(C)nn(C)c4C)CC3)CN2C1=O (configuration not stated) 0.0017%
CC[C@H]1CN(C(=O)Nc2cccc(OC)c2)CC[C@H]1CC(=O)NCc1cccnc1 2.74% [at 57.5 µM]
O=C(CCc1ccccc1)N1CC[C@H]2COC(=O)N2c2cc(F)ccc2C1 -0.726% [at 57.5 µM]
CCNC(=O)O[C@@H]1CO[C@H]2[C@@H]1OC[C@@H]2NC(=O)Nc1ccc(C(C)C)cc1 -0.407% [at 57.5 µM]
CC(Cn1cncn1)NC(=O)c1ccc(CCC(C)(C)O)cc1 (configuration not stated) 1.79%
O=C(NCCc1ccc(Cl)cc1)c1nc(-c2cc(Cl)cc(Cl)c2)c2ccccn12 0.233%
CN(C)c1ccc(-c2nnc([C@H]3CCN(CC4CC4)C3)o2)cc1 8.93% [at 57.5 µM]
CCC(N)(CC)c1cn(CC2CCCN(S(C)(=O)=O)C2)nn1 (configuration not stated) 14.6%
CC(=O)N1CCN(Cc2ccc(F)c(C(F)(F)F)c2)CC(O)C1 (configuration not stated) -4.46%
CCC(C)(C)C(=O)N1CC2CC(C1)[C@H]1CCCC(=O)N1C2 (some centres not stated) -1.57%
COCCN1CCC(CN(C)C2CCNCC2)C1 (configuration not stated) 32%
Cn1ccc(C(=O)N2CC(CNC(=O)Nc3ccccc3)C3(C2)CN(c2ccccc2)C3)n1 (configuration not stated) 0.0488%
CCc1ccc(NC(=O)C2CCN(C(=O)c3nnn4cc(C)[nH]c(=O)c34)CC2)cc1 1.49%
Cc1cc(=O)n(CC(=O)Nc2ccc(C)c(Cl)c2)c(N2CCN(c3ccccc3)CC2)n1 4.18%
Cc1nn(-c2ccc(C(C)(C)C)cc2)c(C)c1[C@@H]1C=C[C@@H](NC(=O)c2ccco2)C1 3.62% [at 57.5 µM]
OCc1cccc(-c2ccc3ncc(Nc4ccc(OCCN5CCCC5)cc4)n3n2)c1 -1.46% [at 57.5 µM]
